# Test results taken from PubChem BioAssay AID686979 (National Center for Advancing Translational Sciences (NCATS), 2013).
# Several values for one entry are separate records, joined by “and”; a condition that tells them apart may be missing. Identical values can stand only once. Screen size: about 420,000 compounds; about 50,000 (12%) were called active. The inconclusive results got no clear call from the source; some entries with a clear call stand among them for comparison. Calls follow the shape of the dose curve; as a rule, active = well fitted inhibition curve with a large enough effect; inconclusive = small, poorly fitted or top-dose-only effect; inactive = flat fitted curve, though single readings scatter. A potency beside an inconclusive call is a rough fit, not a confirmed value.
# Assay: qHTS for Inhibitors of human tyrosyl-DNA phosphodiesterase 1 (TDP1): qHTS in cells in presence of CPT; also: nearly all actives have a fitted effect of over 55% in size
# Conditions: chicken DT40 Tdp1-/-;hTDP1 cells + 20 nM CPT, ATP luminescence, 48 h; activity change, negative = growth inhibition: at 46.2 µM (top of the series)
# In short: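 Cell growth measured by CellTiter-Glo luminescence after a minimum 48 h, 37 C compound exposure with 20 nM CPT in Tdp1-knockout DT40 cells stably expressing hTDP1, seeded 400/well; qHTS titration format.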
# % is scaled to controls: 0 for no effect and ±100 for the full control effect; potency is read from the fitted curve at half-maximal effect; tags tell the direction and shape of the fitted curve.
Structure (SMILES),Potency,"activity change, negative = growth inhibition"
Cc1ccc(C(=O)OCC(=O)NCc2cccc(Cl)c2)cc1S(=O)(=O)N1CCCCC1,"inconclusive: 20.6 µM [inhibitor, single point]",–
COc1ccc(Nc2c([N+](=O)[O-])ccc3c2=NC2(CCCCC2)N=3)cc1,"inconclusive: 25.9 µM [inhibitor, single point]",–
CCOC(=O)N1CCN(C(=O)C2CCC(CNS(=O)(=O)c3ccc(Cl)cc3)CC2)CC1 (stereo not given),"inconclusive: 9.2 µM [inhibitor, partial curve]",–
COc1ccccc1N(C(=O)c1ccncc1)c1nc(-c2ccc([N+](=O)[O-])cc2)cs1,active: 16.4 µM,–
CCCOc1ccc(C(=O)C(CN2CCOCC2)c2ccccc2)cc1 (stereo not given),active: 13 µM,–
O=C1CSC(c2cn(-c3ccccc3)nc2-c2cc3ccccc3o2)N1Cc1ccccc1 (stereo not given),"inconclusive: 18.4 µM [inhibitor, partial curve]",–
Cc1ccc(C(=O)OCC(=O)NCc2cccs2)cc1,–,inactive: 3.39%
CC(C)(C)NC(=O)C12CCC(C)(c3nc4ccccc4nc31)C2(C)C (stereo not given),active: 11.2 µM,–
O=C(Nc1ccc(F)c(F)c1)C1CCCCC1,–,inactive: -29%
CCOC(=O)N1CCN(C(=O)CN(c2ccc(C)cc2C)S(=O)(=O)c2ccccc2)CC1,–,inactive: -0.341%
COC(=O)c1c(NC(NC(=O)C(C)C)C(Cl)(Cl)Cl)sc2c1CCCC2 (stereo not given),–,inactive: -21.3%
Cc1cc(C)c(/C=C/c2onc(C)c2S(=O)(=O)N2CCC(C(=O)NCc3ccco3)CC2)c(C)c1,"inconclusive: 18.4 µM [inhibitor, single point]",–
NC(=O)c1cc(S(=O)(=O)N2CC=C(c3ccccc3)CC2)cs1,–,inactive: -3.69%
CSC(SC)=C(C#N)C(=O)c1ccccc1,active: 2.06 µM,–
COc1cccc(/C=N/NC(=S)NCCc2ccccc2)c1OC,"inconclusive: 29.1 µM [inhibitor, single point]",–
O=C(CCS(=O)(=O)c1cccs1)N1CCN(c2ccc(F)cc2)CC1,–,inactive: -27.5%
COc1ccccc1NC(=O)CN1CCC(n2nnc3cc(F)ccc32)CC1,active: 16.4 µM,–
COc1ccc(N=C2C(=Nc3ccc(OC)cc3)N(c3ccc(OC)cc3)C(=S)N2C(=O)c2ccc(OC)cc2)cc1,"inconclusive: 1.3 µM [inhibitor, full curve, poor fit]",–
O=C(CNS(=O)(=O)c1ccc(Br)s1)N1CCN(c2ccccc2F)CC1,"inconclusive: 23.1 µM [inhibitor, single point]",–
O=C(Nc1nnc(-c2ccc(F)cc2)s1)C1CCN(S(=O)(=O)c2ccc(Cl)cc2)CC1,"inconclusive: 11.6 µM [inhibitor, partial curve]",–
CCOC(=O)c1cc2sccc2n1CC(=O)C(C)(C)C,–,inactive: 9.84%
CC[C@H](C)[C@H]1CNC(=S)N1CC1CCN(CCCC2CCCC2)CC1,"inconclusive: 23.1 µM [inhibitor, single point]",–
COC(=O)c1ccccc1OCCCOc1ccc(C=O)cc1OC,"inconclusive: 29.1 µM [inhibitor, single point]",–

Structure (SMILES),Potency,"activity change, negative = growth inhibition"
O=[N+]([O-])c1ccc(-c2cnc(SC(c3ccccc3)c3ccccc3)[nH]2)cc1,"inconclusive: 29.1 µM [inhibitor, single point]",–
CCOc1ccccc1C1CC(c2cccs2)=NN1S(C)(=O)=O (stereo not given),"inconclusive: 18.4 µM [inhibitor, single point]",–
O=C(COCc1cc(-c2ccco2)on1)Nc1ccc(OC(F)(F)F)cc1,"inconclusive: 16.4 µM [inhibitor, single point]",–
Cc1ccc(NC(=O)CSCC(=O)Nc2cc(S(=O)(=O)N3CCOCC3)ccc2OC(C)C)cc1,"inconclusive: 29.1 µM [inhibitor, single point]",–
COc1cccc(OC)c1C(=O)Nc1ccc2c(c1)CCCN2S(=O)(=O)c1ccc(C)cc1,"inactive and inconclusive: 29.1 µM [inhibitor, single point]",–
CCCCCn1c(=NC(=O)c2cccnc2)c(C#N)cc2c(=O)n3cccc(C)c3nc21,"inconclusive: 29.1 µM [inhibitor, single point]",–
Cc1ccc(-c2nc3c(cnn3-c3ccccc3)c(=O)n2-c2ccc(Cl)cc2)cc1,"inconclusive: 29.1 µM [inhibitor, single point]",–
COc1ccccc1CCNC(C)CCc1ccc(O)cc1 (stereo not given),"inconclusive: 20.6 µM [inhibitor, single point]",–
Cc1ccc(C)c(NC(=O)/C(C#N)=C/c2ccc[nH]2)c1,active: 18.4 µM,–
Cc1cc(=O)[nH]c(SCC(=O)Nc2ccccc2[N+](=O)[O-])n1,–,inactive: -17.5%
Cc1ccc(OCCCC(=O)Nc2ccc(Cl)c(S(=O)(=O)N3CCOCC3)c2)cc1,"inconclusive: 18.4 µM [inhibitor, single point]",–
Cn1cnnc1SCC(=O)NN(c1ccccc1)c1ccccc1,–,inactive: -16.9%
CCN1C(=O)CC(N2CCC(C(=O)OC)CC2)C1=O (stereo not given),–,inactive: 12.7%
CCOc1ccc(CCN2C(=S)N([C@@H](CC(C)C)CN3CCC[C@@H]3CN3C(=S)NC[C@@H]3Cc3ccccc3)C[C@@H]2Cc2ccc(O)cc2)cc1,active: 14.6 µM,–
CNS(=O)(=O)c1cc(C(=O)NCc2ccco2)ccc1Cl,–,inactive: -9.59%
CCc1nn(CC(=O)NCc2cccc(OC)c2)c(=O)c2cc3cc(F)ccc3n12,"inconclusive: 29.1 µM [inhibitor, single point]",–
COc1cccc(NC(=O)CCCN2C(=O)C3CC=CCC3C2=O)c1 (stereo not given),–,inactive: -1.77%
CCCc1c(C(=O)N/N=C(\C)c2ccc(CC(C)C)cc2)nnn1-c1nonc1N,active: 11.6 µM,–
CC1(c2nnc(-c3ccc(Cl)cc3)o2)CC(c2c(Cl)cccc2Cl)=NO1 (stereo not given),"inconclusive: 23.1 µM [inhibitor, single point]",–
Cc1cccc(NC(=O)Cn2c(=O)oc3ccccc32)c1,"inconclusive: 29.1 µM [inhibitor, single point]",–
NC(=O)CSc1nnc(-c2ccc(S(=O)(=O)N3CCCCC3)cc2)n1-c1ccccc1,"inconclusive: 29.1 µM [inhibitor, single point]",–
O=C(NC1CCCC1)c1cc(-c2cccs2)on1,"inconclusive: 10 µM [inhibitor, partial curve] and inconclusive: 16.4 µM [inhibitor, single point]",–
